Test results as given in PubChem BioAssay AID463173 (ICCB-Longwood Screening Facility, Harvard Medical School, 2010).
Hit rate of the full screen: of about 52,000 compounds, about 1,700 (3.3%) were called active. Rule as the data show it: active = survival mostly below about 52% (no sharp cut-off); inactive = mostly above about 56%. Some of the results follow.

System: Wild type
Test: S. aureus survival, RN4220 and DeltatarO strains – OD600, teichoic acid synthesis inhibitors, primary screen (AID 463173)
Conditions: S. aureus RN4220 wild type/DeltatarO growth, OD600, 18 h, active compounds read low, screened at 18.75 µg/mL (by protocol)

| SMILES | survival |
| --- | --- |
| Cc1cc(C)cc(Oc2c(F)c(F)c(F)c(F)c2F)c1 | inactive: 96% |
| Cc1cc(Br)ccc1NC(=O)c1ccc(NS(=O)(=O)c2c(C)noc2C)cc1 | inactive: 62% |
| CCCC1=Nc2cc(C(=O)NCCc3ccccc3)ccc2Sc2ccc(C)cc21 | inactive: 98% |
| CCNC(=S)N1C2CCCC1CC(NC(=O)C1CC1)C2 (stereo not given) | inactive: 95% |
| CCOc1ccc(NC(=O)/C=C\C(=O)N(c2ccc(C(C)C)cc2)C(C(=O)NCc2ccco2)c2ccc(F)cc2)cc1 (stereo not given) | inactive: 51% |
| CCOc1ccc(-c2nc(SCC(=O)NC3CCCC3)c(-c3ccccc3)[nH]2)cc1OC | inactive: 73% |
| COc1ccc(NC(=O)Cn2cnc3ccc(S(=O)(=O)N4CCC(C)CC4)cc3c2=O)cc1OC | inactive: 80% |
| COc1cccc(-c2nc(SCC(=O)NC3CCCC3)c(-c3ccccc3)[nH]2)c1 | inactive: 72% |
| CC(C)=CC(=O)Nc1nnc(Cc2ccccc2)s1 | inactive: 111% |
| Cc1ccc(-c2noc(CCCC(=O)NCc3ccco3)n2)cc1 | inactive: 88% |
| CCOc1ccc(CCNC(=O)CSc2cc(=O)n(C)c3cc(Cl)ccc23)cc1OCC | inactive: 80% |
| O=C(CSc1nc(-c2cccs2)nc2cc(=O)[nH]n12)Nc1ccccc1F | inactive: 60% |
| CCCOc1ccc(C(=O)Nc2ccc(Cl)c(-c3nc4ncccc4o3)c2)cc1 | inactive: 84% |
| CCOc1ccc(CCNC(=O)CCc2c(C)nc3cc(-c4ccccc4OC)nn3c2C)cc1 | inactive: 88% |
| CSc1ccc(CCNC(=O)CN2C(=O)c3cccnc3Oc3ccc(Cl)cc32)cc1 | inactive: 84% |
| Nc1nnc2c(Nc3ccccc3)nc3nonc3n12 | inactive: 115% |
| Cc1c(-c2nsc(NC(=O)c3cccc(Cl)c3)n2)nnn1-c1ccccc1C(F)(F)F | active: -6% |
| COc1cc(C(=O)N2CCc3c([nH]c4ccccc34)C2c2ccc(C)cc2)cc(OC)c1OC (stereo not given) | inactive: 95% |
| Nc1c(-c2nc(-c3ccc4c(c3)OCO4)cs2)c2ccccn2c1C(=O)c1ccccc1 | inactive: 86% |
| CCC(C(=O)Nc1ccccc1OC)n1nc(C)c2sc3ccccc3c2c1=O (stereo not given) | inactive: 93% |
| Cc1ccc(C)c(OCC(=O)Nc2ccc(S(=O)(=O)Nc3onc(C)c3C)cc2)c1C | inactive: 152% |
| Cc1ccc(NC(=O)c2c(C)oc3nc(C)nc(N4CCCC4)c23)c(C)c1 | inactive: 79% |
| CCN(CCCNC(=O)CSc1cc(=O)n(CC)c2ccccc12)c1cccc(C)c1 | inactive: 75% |
| CC(Sc1cn(CCNC(=O)c2ccccc2F)c2ccccc12)c1ccccc1 (stereo not given) | inactive: 44% |
| COc1cccc(-n2c(C)c3c(OC)cccc(=O)c3c2C)c1 | inactive: 99% |
